Some of these densities may be calculated back from excess volumes.
Test: xn = mol fraction of the nth substance listed
Conditions: 101 kPa

COCCn1cc[n+](C)c1.N#C[S-] + O=C1CCCO1
mass density [kg/m3]
Conditions | x1 = 0.1027 | x1 = 0.1999 | x1 = 0.3001 | x1 = 0.4001 | x1 = 0.5006 | x1 = 0.6015 | x1 = 0.7036 | x1 = 0.8038 | x1 = 0.9012 | x1 = 1
288.15 K | 1144.6 | 1152.8 | 1159.8 | 1165.5 | 1170.2 | 1174.1 | – | 1180.1 | 1182.3 | –
293.15 K | 1139.9 | 1148.4 | 1155.6 | 1161.5 | 1166.3 | 1170.3 | 1173.7 | – | 1178.9 | 1180.8
298.15 K | 1135.4 | 1144.1 | – | 1157.4 | 1162.4 | 1166.5 | 1170 | 1172.9 | 1175.3 | –
303.15 K | 1130.7 | 1139.7 | – | 1153.5 | 1158.6 | 1162.8 | 1166.4 | 1169.4 | 1171.9 | 1173.9
308.15 K | 1126.1 | 1135.4 | 1143.2 | 1149.5 | 1154.8 | – | 1162.9 | 1166 | – | 1170.6
313.15 K | – | 1131.1 | 1139 | 1145.5 | – | 1155.4 | – | 1162.3 | 1165 | 1167.1
318.15 K | 1117.2 | 1127 | – | – | 1147.4 | 1152 | 1155.9 | 1159.1 | 1161.8 | 1164
323.15 K | 1112.7 | – | 1131.1 | – | – | 1148.3 | – | 1155.6 | 1158.4 | 1160.6
328.15 K | 1108.2 | 1118.4 | 1126.9 | 1133.9 | 1139.8 | 1144.5 | 1148.7 | 1152.1 | – | 1157.2
333.15 K | – | 1114.1 | 1122.9 | 1130.1 | 1136.1 | 1141 | 1145.2 | 1148.7 | 1151.6 | 1154
338.15 K | 1099.2 | 1109.9 | 1118.9 | 1126.2 | 1132.3 | – | – | 1145.1 | 1148.2 | 1150.7
343.15 K | 1094.8 | 1105.8 | 1115 | 1122.4 | – | 1133.8 | – | 1141.8 | 1144.9 | 1147.4

O=C1CCCO1 + [S-]C#N.COCCN1C=[N+](C=C1)C
x2 = 0
Conditions | mass density [kg/m3]
288.15 K | 1133.7
293.15 K | 1128.7
298.15 K | 1123.9
303.15 K | 1118.8
308.15 K | 1113.9
318.15 K | 1104.4
323.15 K | 1099.6
328.15 K | 1094.7
333.15 K | 1089.9
338.15 K | 1085.2
343.15 K | 1080.5
